According to a collection of fitness landscapes (doi:10.1126/science.1257360):
The other results are listed elsewhere or left out.

B1: PhoQ; a variant is named by its letters at X, in order, P23837 (parent)
chain: MKKLLRLFFPLSLRVRFLLATAAVVLVLSLAYGMVALIGYSVSFDKTTFRLLRGESNLFYTLAKWENNKLHVELPENIDKQSPTMTLIYDENGQLLWAQRDVPWLMKMIQPDWLKSNGFHEIEADVNDTSLLLSGDHSIQQQLQEVREDDDDAEMTHSVAVNVYPATSRMPKLTIVVVDTIPVELKSSYMVWSWFIYVLSANLLLVIPLLWVAAWWSLRPIEALAKEVRELEEHNRELLNPATTRELTSLVRNLNRLLKSERERYDKYRTTLTDLTHSLKTPLXXLQXXLRSLRSEKMSVSDAEPVMLEQISRISQQIGYYLHRASMRGGTLLSRELHPVAPLLDNLTSALNKVYQRKGVNISLDISPEISFVGEQNDFVEVMGNVLDNACKYCLEFVEISARQTDEHLYIVVEDDGPGIPLSKREVIFDRGQRVDTLRPGQGVGLAVAREITEQYEGKIVAGESMLGGARMEVIFGRQHSAPKDE

Variants of: B1
Test: enrichment ratio after two sorts for PhoP signalling (ratio (wild type AVST 3.29)); higher = more functional
Conditions: with PhoP (E. coli)

Row | Variant | enrichment ratio
1 | NWGV | ≤ 0.25
2 | DRDR | ≤ 0.25
3 | TDGA | ≤ 0.25
4 | QYCD | ≤ 0.25
5 | DMLH | ≤ 0.25
6 | LSIH | ≤ 0.25
7 | EMCN | ≤ 0.25
8 | ESQL | ≤ 0.25
9 | HPMK | ≤ 0.25
10 | FMEV | ≤ 0.25
11 | HPGG | ≤ 0.25
12 | TILL | 0.421
13 | RMSH | ≤ 0.25
14 | SWCE | ≤ 0.25
15 | GAIM | 15.4
16 | IAAP | ≤ 0.25
17 | TGEN | ≤ 0.25
18 | WFLG | ≤ 0.25
19 | NIWV | ≤ 0.25
20 | PWAD | ≤ 0.25
21 | GPWK | ≤ 0.25
22 | QKEP | ≤ 0.25
23 | SKWH | ≤ 0.25
24 | YEPR | ≤ 0.25

Row | Variant | enrichment ratio
25 | QAGI | 6.61
26 | KGQN | ≤ 0.25
27 | QFVC | ≤ 0.25
28 | LARF | ≤ 0.25
29 | KVLQ | ≤ 0.25
30 | WIWC | ≤ 0.25
31 | GCHL | ≤ 0.25
32 | NVPI | ≤ 0.25
33 | YAHE | ≤ 0.25
34 | SNTE | 0.617
35 | FFER | ≤ 0.25
36 | HLSP | ≤ 0.25
37 | DVLR | ≤ 0.25
38 | QMGS | 1.95
39 | NYYN | ≤ 0.25
40 | IMDQ | ≤ 0.25
41 | DQNY | ≤ 0.25
42 | GDLC | 1.96
43 | FFDS | ≤ 0.25
44 | MRQA | ≤ 0.25
45 | YVAS | 0.869
46 | PDID | ≤ 0.25
47 | YWWN | ≤ 0.25
48 | WDNR | ≤ 0.25

Row | Variant | enrichment ratio
49 | RRGI | ≤ 0.25
50 | RQGH | ≤ 0.25
51 | PQGP | ≤ 0.25
52 | HARM | ≤ 0.25
53 | ETPE | ≤ 0.25
54 | KAYP | ≤ 0.25
55 | QATK | ≤ 0.25
56 | KTKE | ≤ 0.25
57 | KVFD | ≤ 0.25
58 | AYFL | ≤ 0.25
59 | IWRW | ≤ 0.25
60 | RMAD | ≤ 0.25
61 | CIYN | ≤ 0.25
62 | AINI | ≤ 0.25
63 | YTRW | ≤ 0.25
64 | MQHP | ≤ 0.25
65 | FAYF | ≤ 0.25
66 | MRQS | ≤ 0.25
67 | KRYW | ≤ 0.25
68 | NNIH | ≤ 0.25
69 | AHHC | ≤ 0.25
70 | LVLM | ≤ 0.25
71 | WADK | ≤ 0.25
72 | SGSC | 9.79

Row | Variant | enrichment ratio
73 | GRAN | ≤ 0.25
74 | GPIG | ≤ 0.25
75 | HCLT | ≤ 0.25
76 | IDEP | ≤ 0.25
77 | FCHI | ≤ 0.25
78 | TVHA | ≤ 0.25
79 | IALT | 1.07
80 | MVFH | ≤ 0.25
81 | SGPV | ≤ 0.25
82 | QALK | ≤ 0.25
83 | RHFM | ≤ 0.25
84 | LPMR | ≤ 0.25
85 | SDWF | ≤ 0.25
86 | LRGK | ≤ 0.25
87 | SYAW | ≤ 0.25
88 | SMRC | ≤ 0.25
89 | PDLQ | ≤ 0.25
90 | PNEG | ≤ 0.25
91 | RNCV | ≤ 0.25
92 | GTQR | ≤ 0.25
93 | MLFM | ≤ 0.25
94 | AREH | ≤ 0.25
95 | FLAM | 0.363
96 | NFAL | ≤ 0.25

Row | Variant | enrichment ratio
97 | SMRA | ≤ 0.25
98 | EYRM | ≤ 0.25
99 | KPTQ | ≤ 0.25
100 | DTWP | ≤ 0.25
101 | SVWM | ≤ 0.25
102 | ICSN | ≤ 0.25
103 | SKQN | ≤ 0.25
104 | RTYD | ≤ 0.25
105 | LKIL | ≤ 0.25
106 | FFCQ | ≤ 0.25
107 | GGIS | 0.407
108 | PAHS | ≤ 0.25
109 | RDNC | 1.59
110 | YCDT | ≤ 0.25
111 | VWIK | ≤ 0.25
112 | AFNW | ≤ 0.25
113 | DIFA | ≤ 0.25
114 | LCDQ | ≤ 0.25
115 | SQKK | ≤ 0.25
116 | PVGR | ≤ 0.25
117 | LQLG | 1.81
118 | KQHG | ≤ 0.25
119 | RQVC | ≤ 0.25
120 | GKWR | ≤ 0.25

Row | Variant | enrichment ratio
121 | FHYD | ≤ 0.25
122 | RSHD | ≤ 0.25
123 | TPSE | ≤ 0.25
124 | IMHW | ≤ 0.25
125 | EAHP | ≤ 0.25
126 | RDEM | ≤ 0.25
127 | IQDI | ≤ 0.25
128 | KHIV | ≤ 0.25
129 | YWGT | ≤ 0.25
130 | LNIG | ≤ 0.25
131 | TGLA | 27.5
132 | PVSE | ≤ 0.25
133 | SHIM | 2.2
134 | FAVR | ≤ 0.25
135 | MQKY | ≤ 0.25
136 | SQLL | 12.5
137 | FAGW | ≤ 0.25
138 | TTQK | ≤ 0.25
139 | EMQD | ≤ 0.25
140 | KYFD | ≤ 0.25
141 | GQEF | ≤ 0.25
142 | VFPI | ≤ 0.25
143 | DSVE | ≤ 0.25
144 | SWDS | ≤ 0.25

Row | Variant | enrichment ratio
145 | NSGC | ≤ 0.25
146 | SFIF | ≤ 0.25
147 | EISG | ≤ 0.25
148 | MKDE | ≤ 0.25
149 | RFLS | ≤ 0.25
150 | KICQ | ≤ 0.25
151 | STKY | ≤ 0.25
152 | SRQP | ≤ 0.25
153 | MNNH | ≤ 0.25
154 | SRQH | ≤ 0.25
155 | FFFT | ≤ 0.25
156 | QQTA | ≤ 0.25
157 | IIHE | ≤ 0.25
158 | GSYM | ≤ 0.25
159 | QSKM | ≤ 0.25
160 | WFYM | ≤ 0.25
161 | LTRW | ≤ 0.25
162 | FVLR | ≤ 0.25
163 | AWFH | ≤ 0.25
164 | EYMW | ≤ 0.25
165 | YASY | ≤ 0.25
166 | LNSC | ≤ 0.25
167 | KFLV | ≤ 0.25
168 | GGII | 1.19

Row | Variant | enrichment ratio
169 | LHFM | ≤ 0.25
170 | QDLE | ≤ 0.25
171 | EYDY | ≤ 0.25
172 | YMAA | ≤ 0.25
173 | FNWN | ≤ 0.25
174 | MTGR | ≤ 0.25
175 | WRDY | ≤ 0.25
176 | LIFG | ≤ 0.25
177 | TVNE | 2.34
178 | HQYN | ≤ 0.25
179 | TFFS | ≤ 0.25
180 | HGNY | ≤ 0.25
181 | VLVK | ≤ 0.25
182 | KYVI | ≤ 0.25
183 | QELY | ≤ 0.25
184 | YLLV | ≤ 0.25
185 | DHRT | ≤ 0.25
186 | KLWG | ≤ 0.25
187 | MEQW | ≤ 0.25
188 | YLAD | ≤ 0.25
189 | QQWT | ≤ 0.25
190 | DVMN | ≤ 0.25
191 | PQAI | ≤ 0.25
192 | MWVS | ≤ 0.25

Row | Variant | enrichment ratio
193 | DCII | ≤ 0.25
194 | DSQT | ≤ 0.25
195 | EGHT | ≤ 0.25
196 | HQMV | ≤ 0.25
197 | PCVS | ≤ 0.25
198 | IVHP | ≤ 0.25
199 | ANTK | ≤ 0.25
200 | ETCR | ≤ 0.25
201 | GSNC | ≤ 0.25
202 | KINE | ≤ 0.25
203 | NNTF | ≤ 0.25
204 | LYNE | ≤ 0.25
205 | KRLI | ≤ 0.25
206 | GFCY | ≤ 0.25
207 | RMGH | ≤ 0.25
208 | SWRI | 0.665
209 | KRLH | ≤ 0.25
210 | SYPV | ≤ 0.25
211 | VGPV | ≤ 0.25
212 | GLWY | ≤ 0.25
213 | SPQR | ≤ 0.25
214 | YKPE | ≤ 0.25
215 | VHTK | ≤ 0.25
216 | DEKT | ≤ 0.25

Row | Variant | enrichment ratio
217 | ANYN | ≤ 0.25
218 | TPEI | ≤ 0.25
219 | HMPT | ≤ 0.25
220 | ALNM | ≤ 0.25
221 | SEMK | 7.11
222 | DKNQ | ≤ 0.25
223 | NHME | ≤ 0.25
224 | VPDW | ≤ 0.25
225 | NFKK | ≤ 0.25
226 | QHRI | ≤ 0.25
227 | PRAC | ≤ 0.25
228 | MRHV | ≤ 0.25
229 | HWTQ | ≤ 0.25
230 | HQPG | ≤ 0.25
231 | GKTF | ≤ 0.25
232 | SWAS | ≤ 0.25
233 | IFCN | ≤ 0.25
234 | IIEM | ≤ 0.25
235 | TRPS | ≤ 0.25
236 | SWQQ | ≤ 0.25
237 | WKFQ | ≤ 0.25
238 | MCTY | ≤ 0.25
239 | GMPG | ≤ 0.25
240 | NGIF | ≤ 0.25

Row | Variant | enrichment ratio
241 | YKGH | ≤ 0.25
242 | MSMH | 4.84
243 | SCKQ | ≤ 0.25
244 | MFCN | ≤ 0.25
245 | KGRV | ≤ 0.25
246 | YGLF | 0.466
247 | TGAY | 4.95
248 | LGYN | ≤ 0.25
249 | RHHI | ≤ 0.25
250 | WMAD | ≤ 0.25
251 | PPIQ | ≤ 0.25
252 | VMMR | ≤ 0.25
253 | ELLF | ≤ 0.25
254 | NWTR | ≤ 0.25
255 | HDYR | ≤ 0.25
256 | SMSI | 12.9
257 | NHFI | ≤ 0.25
258 | ISQK | ≤ 0.25
259 | PHCG | ≤ 0.25
260 | FGGY | ≤ 0.25
261 | STLT | 12.3
262 | LTIE | ≤ 0.25
263 | TKKA | ≤ 0.25
264 | MEPM | 2.11

Row | Variant | enrichment ratio
265 | DYKI | ≤ 0.25
266 | DMGQ | ≤ 0.25
267 | RLWD | ≤ 0.25
268 | EPGH | ≤ 0.25
269 | VWGG | ≤ 0.25
270 | IFWQ | ≤ 0.25
271 | MHIF | ≤ 0.25
272 | QKTR | 5.2
273 | HAFV | ≤ 0.25
274 | EERG | ≤ 0.25
275 | VSGP | ≤ 0.25
276 | DAKW | ≤ 0.25
277 | ELVL | ≤ 0.25
278 | QVMY | ≤ 0.25
279 | KKFQ | ≤ 0.25
280 | PLID | ≤ 0.25
281 | DYFA | ≤ 0.25
282 | VEHN | ≤ 0.25
283 | INGT | ≤ 0.25
284 | TRFC | ≤ 0.25
285 | TRLR | ≤ 0.25
286 | QTSS | 3.29
287 | DLEI | ≤ 0.25
288 | TWPD | ≤ 0.25

Row | Variant | enrichment ratio
289 | SKFD | ≤ 0.25
290 | TLGG | 7.45
291 | RGHV | ≤ 0.25
292 | MCKQ | ≤ 0.25
293 | TGCT | 1.82
294 | HYCW | ≤ 0.25
295 | WATR | ≤ 0.25
296 | LHWV | ≤ 0.25
297 | RNKG | ≤ 0.25
298 | DLTN | ≤ 0.25
299 | GYVW | ≤ 0.25
300 | EGND | ≤ 0.25
301 | FPEW | ≤ 0.25
302 | PLGG | ≤ 0.25
303 | GKPL | ≤ 0.25
304 | RQEI | ≤ 0.25
305 | MAVN | ≤ 0.25
306 | NSCE | ≤ 0.25
